# According to the RNAGym collection of RNA variant scans (doi:10.7554/elife.90254):
# The source gives no read counts; variants with many changes may rest on few reads.
# B1: OR4K15 (parent)
# chain: GUUAACGGUCAUAGGCCAUGGAAACUAGGAGCACCAUUUCGCUGCCAGUGAAGAAAUGAACAAAGAAAAUCUGGGCCAGGCAGGCAUCAAAAGAAAUAGUCUUGCGCUCAACCAGAAAGUCUGUAAUCAUUUUAAGGGUA
# Variants of: B1
# Test: self-cleavage, relative activity (ratio to wild type); higher = more cleavage; in vitro, sequencing; the parent is a self-cleaving ribozyme
row,Variant,self-cleavage
1,GUUAACGGUCAUAGGCCAUGGAAACUAGGAGCACCAUUUCGCUGCCAGUGAAGAAAUGGACAAAGAAAAUCUGGGCCAGGCAGGCAUCAAAAGAAAUAGUCUUGCGCUCAACCAGAAAGUCUGUAAUCAUAAUAUGGGUA [A59G U131A U132A A135U],1.29
2,GUUAACGGUCAUAGGCCAUGGAAACUAGGAGCACCAUUUCGCUGCCAGUGAAGAAAUGAGCACAGAAGAUCUGGGCCAGGCAGACAUCAAAAGAAAUAGUCUUGCGCUCAACCAGAAAGUCUGUAAUCAUUUUAAGGGUA [A60G A63C A68G G84A],1.36
3,GUUAACGGUCAUAGGCCAUGGAAACUAGGAGCACCAUUUCGCUGCCAGUGAAGAAAUGUACAGAGAAAAUCUGGGCCAGGCAGGCAUCAAAAAAAAUAGUCUUGCGCUCAACCGGAAAGUCAGUAAUCAUUUUAAGUGUA [A59U A63G G93A A114G U122A G137U],0.03
4,GUUAACGGUCAUAGGCCAUGGAAACUAGGAGCACCAUUUCGCUGCCAGUGAAGAAAUGGACAAAGAAAAUCUGGGCCAGGCAGGCAUCAAAAGAAAUAGUCUUGCGCUCAACCAGAAAGUCUGUAAUCAUUUCUAGGGUA [A59G U133C A134U],1.59
5,GUUAACGGUCAUAGGCCAUGGAAACUAGGAGCACCAUUUCGCUGCCAGUGAAGAAAUGUACAAAGAAAAUCUGGGCCAGGCAGGCAUCAAAAGAAAUAGUCUUGCGCUCAACCGGAAAGUCUGUAAUCAUUUUAAGAGUA [A59U A114G G137A],0.26
6,GUUAACGGUCAUAGGCCAUGGAAACUAGGAGCACCAUUUCGCUGCCAGUGAAGAAAUGUACAAAGAAAAUCUGGGCCAGGCAGGCAUCAAGAGAAAUAGUCUUGCGCUCAACCAGAGAGUCUGUAAUCACUUUAAGGGUA [A59U A91G A117G U130C],0.55
7,GUUAACGGUCAUAGGCCAUGGAAACUAGGAGCACCAUUUCGCUGCCAGUGAAGAAAUGAGCAGAGAAAAUCUGGGCCAGGCUGGCAUCAAAAGAAAUAGUCUUGCGCUCAACCAGAAAGUCCGUAAUCAUUUUAAGGGUA [A60G A63G A82U U122C],0.17
8,GUUAACGGUCAUAGGCCAUGGAAACUAGGAGCACCAUUUCGCUGCCAGUGAAGAAAUGAGCAAGGAAAAUCUGGGCCAGGCAGGCAUCAAAAGAAAUAGUCUUGCGCUCAACCAGAAGGUCUGUAAUCAUUUUAAGGGUA [A60G A64G A118G],0.91
9,GUUAACGGUCAUAGGCCAUGGAAACUAGGAGCACCAUUUCGCUGCCAGUGAAGAAAUGGACAAAGAAAAUCUGGGCCAGGCAGGCAUCAAAAGAAAUAGUCUCGCGCUCAACCAGAAAGUCUGUAAUCAUUUUGAGGGUA [A59G U103C A134G],0.61
10,GUUAACGGUCAUAGGCCAUGGAAACUAGGAGCACCAUUUCGCUGCCAGUGAAGAAAUGUACAAAGAAAAUCUGGGCCAGGCAGACAUCAAAAGAAAUAGUCUUGCGCUCAACCAGAAGGUCUGUAAUCAUUUUAAGGGUA [A59U G84A A118G],1.1
11,GUUAACGGUCAUAGGCCAUGGAAACUAGGAGCACCAUUUCGCUGCCAGUGAAGAAAUGAGCAGAGAAAAUCUGGGCCAGGCAGGCAUCAAAAGAAAUAGUCUUGCGCUCAACCAGAAAGUCUGUAAUCAUUUUAAGGGUG [A60G A63G A140G],1.54
12,GUUAACGGUCAUAGGCCAUGGAAACUAGGAGCACCAUUUCGCUGCCAGUGAAGAAAUGUACAAAGAAUAUCUGGGCCAGGCAGGCAUCAAAAGAAAUAGUCCUGCGCUCAACCAUAAAGUCUGUAAUCAUUUUAAGGGCA [A59U A68U U102C G115U U139C],0.07
13,GUUAACGGUCAUAGGCCAUGGAAACUAGGAGCACCAUUUCGCUGCCAGUGAAGAAAUGAGCAAGGAAAAUCUGGGCCAGGCAGGCAUCAAAAGAAAUAGUCUUGCGCUCAACCAGAAAGUCUGUAAUCAUUUUAAGGGUG [A60G A64G A140G],1.07
14,GUUAACGGUCAUAGGCCAUGGAAACUAGGAGCACCAUUUCGCUGCCAGUGAAGAAAUGUACAAGGAAAAUCUGGGCCAGGCAGGCAUCAAGUGAAAUAGUCUUGCGCUCAACCAGAAAGUCUGUAAUCAUCUUAAGGGUA [A59U A64G A91G A92U U131C],0.99
15,GUUAACGGUCAUAGGCCAUGGAAACUAGGAGCACCAUUUCGCUGCCAGUGAAGAAAUGUACAAAGAAAAUCUGGGCCUGGCAGGCAUCAAAAGAACUAGUCUUGCGCUCAACCAGAAAGUCUGUAAUCAUUUUAAGGGUA [A59U A78U A96C],0.2
16,GUUAACGGUCAUAGGCCAUGGAAACUAGGAGCACCAUUUCGCUGCCAGUGAAGAAAUGGACAAAGAAAAUCUGGGCCAGGCAGGCAUCAAAAGAAAUAGUCUUGCGCUCAACCAGAAAGUCUGAAAUCACUUUAAGGGUA [A59G U124A U130C],0.91
17,GUUAACGGUCAUAGGCCAUGGAAACUAGGAGCACCAUUUCGCUGCCAGUGAAGAAAUGUACAAAGAAAAUCUGGGCCUGGCAGGCCUCAAAAGAAAUAGUCUUGCGCUCAACCAGAAAGUCUGUAGUCAUUUUAAGGGUA [A59U A78U A86C A126G],0.21
18,GUUAACGGUCAUAGGCCAUGGAAACUAGGAGCACCAUUUCGCUGCCAGUGAAGAAAUGUGCAAAGAAAAUCUGGGCCAGGCAGGCAUCAAAAGAGAUAGUCUUGCGCUCAACCAGAAAGUCUGUGAUCAUUUUAAGGGUA [A59U A60G A95G A125G],2
19,GUUAACGGUCAUAGGCCAUGGAAACUAGGAGCACCAUUUCGCUGCCAGUGAAGAAAUGUACAAAGAAAAUCUGGGCCAGGCAGGCAUCAGAAGAAAUAGUCUUGCGCUCAACCAGAAGGUCUGUAAUCAUUUUAAGGGUA [A59U A90G A118G],0.71
20,GUUAACGGUCAUAGGCCAUGGAAACUAGGAGCACCAUUUCGCUGCCAGUGAAGAAAUGGACAAAGAAAAUCUGGGCCAGGCAGGCAUCAAAAGAAAUAGUCUUGCGCUCAACCAGAAAGCCUGUAAUCAUUUUAAGGGGA [A59G U120C U139G],0.94
